{
  "source": "the supplement of paper PMC3334620",
  "note": "Over roughly 33,000 sequences, “E-score (-0.5 to 0.5)” has its median near -0.01; the highest 2% begin near 0.26. The list shows a part of the results.",
  "data": [
    {"target": "Ste12 (UniProt P13574)", "experiment": "PBM E-score (8-mer binding enrichment) (E-score (-0.5 to 0.5)); higher = stronger / more preferred TF binding; most listed sequences are background and not binding sites", "conditions": "protein concentration: 200 nM; construct: GST-DNA-binding domain", "procedure": "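Universal 'all 10-mer' protein binding microarrays (Agilent AMADID 015681) probed with GST-tagged S. cerevisiae TFs (full-length or DBD) made by in vitro transcription/translation (PURExpress), about 100-200 nM. Bound TF was detected with fluorescent anti-GST. Each ungapped 8-mer (which stands for itself and its reverse complement) is scored by the PBM enrichment score (E-score), a modified Wilcoxon-Mann-Whitney statistic from -0.5 to +0.5, computed with the Universal PBM Analysis Suite. Scale: above 0.35 generally sequence-specific binding.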", "values": [
      {"sequence": "ATCGGCGG", "PBM E-score": 0.0458},
      {"sequence": "CTTGGGTA", "PBM E-score": 0.0573},
      {"sequence": "ATCCCATC", "PBM E-score": -0.0314},
      {"sequence": "ATTTGGGA", "PBM E-score": 0.107},
      {"sequence": "ACGTGCCT", "PBM E-score": -0.166},
      {"sequence": "GTTACAAC", "PBM E-score": 0.289},
      {"sequence": "ATCTTCGG", "PBM E-score": -0.0513},
      {"sequence": "AAACTAAT", "PBM E-score": 0.138},
      {"sequence": "AATCGAAC", "PBM E-score": 0.00242},
      {"sequence": "AGCCTGCG", "PBM E-score": -0.106},
      {"sequence": "GTCCCCAC", "PBM E-score": -0.112},
      {"sequence": "GAGTGGTA", "PBM E-score": -0.0637},
      {"sequence": "ATGTCAAT", "PBM E-score": 0.0447},
      {"sequence": "TAACGACA", "PBM E-score": 0.0507},
      {"sequence": "GTAGCTCA", "PBM E-score": -0.0851},
      {"sequence": "CCCTAGAG", "PBM E-score": -0.209},
      {"sequence": "GCCTATCC", "PBM E-score": -0.214},
      {"sequence": "ATCAAAGA", "PBM E-score": 0.127},
      {"sequence": "GATTCGGC", "PBM E-score": 0.0402},
      {"sequence": "ATATTAGG", "PBM E-score": 0.00128},
      {"sequence": "GGATAACA", "PBM E-score": 0.102},
      {"sequence": "ACGTTCAA", "PBM E-score": -0.13},
      {"sequence": "AGCATGTC", "PBM E-score": -0.104},
      {"sequence": "ATTGCAAT", "PBM E-score": 0.0401},
      {"sequence": "ATCGACAA", "PBM E-score": 0.225},
      {"sequence": "AGGATGGA", "PBM E-score": -0.113},
      {"sequence": "AGTACCCC", "PBM E-score": 0.0137},
      {"sequence": "CAAACCAC", "PBM E-score": 0.0475},
      {"sequence": "ACATCAAT", "PBM E-score": 0.219},
      {"sequence": "GAAGTTAA", "PBM E-score": -0.0418},
      {"sequence": "CCAAAGTA", "PBM E-score": 0.0518},
      {"sequence": "AGGCTGAG", "PBM E-score": 0.0657},
      {"sequence": "CCGGGAGC", "PBM E-score": -0.172},
      {"sequence": "CAACATCC", "PBM E-score": -0.0922},
      {"sequence": "CGACAAGC", "PBM E-score": 0.0292},
      {"sequence": "CGCTGTGC", "PBM E-score": -0.05},
      {"sequence": "ATGATCTG", "PBM E-score": -0.098},
      {"sequence": "AGGGACCT", "PBM E-score": -0.127},
      {"sequence": "ACAACTGC", "PBM E-score": -0.14},
      {"sequence": "AAATACAT", "PBM E-score": 0.0653},
      {"sequence": "ACGGGTCA", "PBM E-score": -0.226},
      {"sequence": "ATGGAAAA", "PBM E-score": 0.186},
      {"sequence": "ACCTCCAA", "PBM E-score": -0.197},
      {"sequence": "TCCTGCCA", "PBM E-score": -0.134},
      {"sequence": "GAGCTAAA", "PBM E-score": 0.0475},
      {"sequence": "AAATTGAT", "PBM E-score": 0.22},
      {"sequence": "ATTTGTGA", "PBM E-score": 0.148},
      {"sequence": "CCTGATCG", "PBM E-score": -0.0228},
      {"sequence": "ATAGCCAG", "PBM E-score": -0.196},
      {"sequence": "GAAAAGGA", "PBM E-score": 0.179},
      {"sequence": "GGACAAAC", "PBM E-score": -0.013},
      {"sequence": "ATCAATGC", "PBM E-score": 0.108},
      {"sequence": "AACATCCA", "PBM E-score": 0.0519},
      {"sequence": "AATAACAC", "PBM E-score": 0.186},
      {"sequence": "GACCAAGC", "PBM E-score": -0.124},
      {"sequence": "AAACCCAG", "PBM E-score": 0.0806},
      {"sequence": "ACATCAAC", "PBM E-score": 0.187},
      {"sequence": "CCACCAAG", "PBM E-score": -0.105},
      {"sequence": "ACCATTCG", "PBM E-score": -0.0543},
      {"sequence": "CGTAAGTC", "PBM E-score": -0.0977},
      {"sequence": "ATTGCAAA", "PBM E-score": 0.142},
      {"sequence": "TATGACAA", "PBM E-score": 0.0959},
      {"sequence": "CAATCAGG", "PBM E-score": 0.0397},
      {"sequence": "GCCGGCCC", "PBM E-score": 0.0652},
      {"sequence": "CAAGCTTA", "PBM E-score": 0.00549},
      {"sequence": "GACTGTCC", "PBM E-score": -0.195},
      {"sequence": "GGGAAAAC", "PBM E-score": 0.116},
      {"sequence": "CGTTAATA", "PBM E-score": 0.203},
      {"sequence": "ATTAAGTA", "PBM E-score": 0.0358},
      {"sequence": "GGGACAAC", "PBM E-score": 0.0742},
      {"sequence": "CGGTTAGC", "PBM E-score": -0.103},
      {"sequence": "GACTAAGC", "PBM E-score": -0.0404},
      {"sequence": "CAGCTACA", "PBM E-score": -0.0685},
      {"sequence": "GCCTTGCC", "PBM E-score": -0.0716},
      {"sequence": "GTGCCCAA", "PBM E-score": -0.177},
      {"sequence": "GAGTATAC", "PBM E-score": -0.121},
      {"sequence": "CAATACGA", "PBM E-score": 0.0374},
      {"sequence": "ACGGTCTG", "PBM E-score": -0.0532},
      {"sequence": "AATCTGAG", "PBM E-score": 0.0703},
      {"sequence": "CTTTAAAA", "PBM E-score": 0.266},
      {"sequence": "CCGGTCGA", "PBM E-score": 0.053},
      {"sequence": "AAACATAA", "PBM E-score": 0.306},
      {"sequence": "TAAACATA", "PBM E-score": 0.218},
      {"sequence": "ATCTACAT", "PBM E-score": 0.0249},
      {"sequence": "GGGTACGA", "PBM E-score": -0.0683},
      {"sequence": "CCCACTTC", "PBM E-score": 0.00838},
      {"sequence": "ATATCCAG", "PBM E-score": -0.0284},
      {"sequence": "ATAATCCA", "PBM E-score": 0.118},
      {"sequence": "ATAGGGAG", "PBM E-score": -0.135},
      {"sequence": "CGTGCCGA", "PBM E-score": -0.0543},
      {"sequence": "ATCCTACG", "PBM E-score": -0.141},
      {"sequence": "AGGGCGTA", "PBM E-score": -0.176},
      {"sequence": "GCACCGGC", "PBM E-score": 0.0956},
      {"sequence": "TACAAGTA", "PBM E-score": 0.116}
    ]}
  ]
}
